Assay results as given in PubChem BioAssay AID1347417 (National Center for Advancing Translational Sciences (NCATS), 2020).
Out of some 120,000 compounds screened, about 5,300 (4.4%) were called active. Inconclusive means that the source gave no clear call. Such entries were picked first, then a sample of the others. Calls follow the shape of the dose curve; as a rule, active = well fitted inhibition curve with a large enough effect; inconclusive = small, poorly fitted or top-dose-only effect; inactive = no such curve, though single readings can be large or run the other way. Potencies of inconclusive entries are doubtful fits and often do not repeat.

Test: qHTS Primary assay for Inhibitors of Plasmodium falciparum Dd2 growth in vitro; also: nearly all actives have a fitted effect of over 65% in size;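 as to activity, negative = inhibition: plate controls were DMSO vehicle for no effect and reference drug for full effect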
Conditions: P. falciparum Dd2 growth, SYBR Green, 72 h; activity, negative = inhibition: at 28.9 µM (top of the series) unless noted; series mostly up to 28.9 µM
In short: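 Infected erythrocytes (Dd2, 0.3% parasitemia, 2.5% hematocrit final) are added to compound in RPMI-1640/Albumax II medium, grown 72 h at 37C in low oxygen, then lysed with saponin/Triton-X containing SYBR Green and read by fluorescence.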
Potency is read from the fitted curve at half-maximal effect; tags tell the direction and shape of the fitted curve.

| SMILES | Potency | outcome | activity, negative = inhibition |
| --- | --- | --- | --- |
| CCn1ccc(C(=O)N2[C@H]3CC[C@@H]2c2cnc(-c4ccc(F)cc4)nc2C3)n1 | inconclusive: 17.8 µM [inhibitor, single point] | – | – |
| CCOc1ccccc1C(=O)Nc1ccc(S(=O)(=O)N2CCCCC2c2cccnc2)cc1 (stereo not drawn) | inconclusive: 12.6 µM [inhibitor, single point] | – | – |
| Cc1csc(NC(=O)C2CC(=O)N(c3n[nH]c4cccc(F)c34)C2)n1 (stereo not drawn) | inconclusive: 2.82 µM [inhibitor, partial curve, poor fit] | – | – |
| CC(C)Oc1ccc2c(NC(=O)c3ccnn3C)nn(Cc3ccccc3)c2c1 | inconclusive: 10 µM [inhibitor, single point] | – | – |
| COc1cc(CNC(=O)[C@@H]2C[C@@H](c3cccc(C(F)(F)F)c3)N(C)C2)cc(OC)c1 | inconclusive: 31.6 µM [inhibitor, single point] | – | – |
| COc1ccccc1-c1nnc([C@H]2CCN(C3CCN(C)CC3)C2)o1 | – | inactive [at 44.1 µM] | – |
| COc1cccc([S+](=O)([O-])N2CC(Oc3ccc(F)c(C)c3)C2)c1 | – | inactive | – |
| O=C(NCc1cccc(-c2ccccc2)c1)C1CC(=O)N(C2CC2)C1 (stereo not drawn) | – | – | inactive: -0.723% |
| CCCC(=O)N1CCc2cc(OC)c(OC)cc2C1COc1ccc(C(=O)OC)cc1 (stereo not drawn) | active: 10 µM | – | – |
| CCC(=O)N1CCC2(CC1)c1[nH]c3ccc(OC)cc3c1CCN2C | – | – | inactive: -5.42% |
| CCOc1ccccc1NC(=O)N1CCCC(c2noc(COc3ccccc3)n2)C1 (stereo not drawn) | active: 5.62 µM | – | – |
| O=C(NCCn1cc(SCc2ccc(Br)cc2)c2ccccc21)c1cccs1 | inconclusive: 12.6 µM [inhibitor, single point] | – | – |
| COc1cccc(-c2ccnc3nc(-c4cccs4)nn23)c1 | inconclusive: 11.2 µM [inhibitor, partial curve] | – | – |
| CC1=C(C(=O)OC(C)C)C(c2ccccc2Cl)N2C(CC(=O)N3CCCC3)=CSC2=N1 (stereo not drawn) | – | inactive | – |
| COc1ccc(CCNC(=O)C2CCN(Cc3nc(-c4ccc(OC)c(OC)c4)oc3C)CC2)cc1OC | inconclusive: 10 µM [inhibitor, single point] | – | – |
| CCOc1ccc(CN2CCCC(CO)(CCc3ccccc3)C2)cc1CO (stereo not drawn) | inconclusive: 8.91 µM [inhibitor, single point] | – | – |
| CC(C)(C)c1ccc(-c2cc(C[C@H]3CNCC[C@H]3CC(=O)NCc3cccs3)no2)cc1 | inconclusive: 2.24 µM [inhibitor, full curve, poor fit] | – | – |
| COC(=O)c1sc(-c2ccccc2)cc1NC(=O)Nc1ccc(F)cc1 | inconclusive: 11.2 µM [inhibitor, single point] | – | – |
| COc1ccc(C(=O)NCC2CCCCC(=O)N2)cc1 (stereo not drawn) | – | – | inactive: -2.37% |
| COc1ccc(C(CC(=O)NCc2ccc(Cl)cc2)N2Cc3ccccc3C2=O)cc1OC (stereo not drawn) | inconclusive: 10 µM [inhibitor, partial curve] | – | – |
| O=C(CC1CCN(S(=O)(=O)c2ccc(F)c(F)c2)C1)NCc1ccccc1 (stereo not drawn) | – | – | inactive: -5.68% |
| Cc1ccc(C(=O)c2oc3ccccc3c2NC(=O)Cc2coc3ccc(C)cc23)cc1 | inconclusive: 17.8 µM [inhibitor, single point] | – | – |
| Cc1nc(-c2cccc(Cl)c2)n(CC(=O)Nc2ccc3c(c2)OCO3)c(=O)c1CCO | inconclusive: 11.2 µM [inhibitor, single point] | – | – |

| SMILES | Potency | outcome | activity, negative = inhibition |
| --- | --- | --- | --- |
| COc1ccc(-n2cnc3cc(C(=O)NC4CCCCCC4)ccc32)cc1 | inconclusive: 11.2 µM [inhibitor, partial curve] | – | – |
| O=C(CCCCn1c(=O)c2ccccc2n(Cc2cccc(F)c2)c1=O)NCc1ccc2c(c1)OCO2 | inconclusive: 3.98 µM [inhibitor, partial curve, poor fit] | – | – |
| Cc1cccc(Nc2c(-c3ccsc3)nc3nc(C)cc(C)n23)c1 | inconclusive: 20 µM [inhibitor, single point] | – | – |
| Cn1nc(C(=O)N2CC(c3nnc(-c4ccncc4)o3)C3(CCOCC3)C2)c2ccccc21 (stereo not drawn) | – | – | inactive: -11.8% |
| Cc1ccc(OCC(=O)NCC(c2ccc(Cl)cc2)N2CCOCC2)cc1C (stereo not drawn) | inconclusive: 10 µM [inhibitor, single point] | – | – |
| COc1ccccc1-c1cn2c(n1)CO[C@@H](CNC1CCCC1)C2 | – | inactive [at 44.1 µM] | – |
| O=C(NC1CCN(c2cnn(CC3CC3)c(=O)c2)CC1)c1ccc2c(c1)OCO2 | inconclusive: 1.78 µM [inhibitor, full curve] | – | – |
| Cc1cc2c(cc3c(SCc4ccc(Cl)cc4)nncn32)o1 | inconclusive: 10 µM [inhibitor, single point] | – | – |
| O=C(NCC1CC1)c1ccc2c(c1)OCCN(c1ccccc1)C2 | inconclusive: 6.31 µM [inhibitor, partial curve, poor fit] | – | – |
| COc1ccc(CN2CC[C@@H](CO)N(C)c3nc(C)ccc3C2)cc1 | – | – | inactive: -11.2% [at 44.1 µM] |
| COc1ccccc1C(CC(=O)NCCc1ccccc1)c1c[nH]c2ccccc12 (stereo not drawn) | inconclusive: 0.355 µM [inhibitor, full curve, poor fit] | – | – |
| Cn1c(=O)c2c(-c3ccc(Br)cc3)n(Cc3ccc(F)cc3)cc2n(C)c1=O | inconclusive: 11.2 µM [inhibitor, partial curve, poor fit] | – | – |
| O=C1CCN(C2CCC2)CCCC(c2nc(-c3cccnc3)no2)CCN1 (stereo not drawn) | – | – | inactive: -5.92% |
| COc1ccc(-c2nc3cc(C)ccn3c2NC(=O)c2cccc(F)c2)cc1 | inconclusive: 11.2 µM [inhibitor, single point] | – | – |
| COc1cccc(C(=O)Nc2cccc(-c3nc4ncccn4c3C)c2)c1 | inconclusive: 17.8 µM [inhibitor, single point] | – | – |
| COc1ccc(C(=O)NC2CCN(c3cc(C(F)(F)F)ncn3)CC2)cc1 | inconclusive: 11.2 µM [inhibitor, single point] | – | – |
| Cc1cc(Cl)ccc1S(=O)(=O)N1CCCC(Cn2cnc3cccnc32)C1 (stereo not drawn) | – | inactive | – |
| O=C(NCc1ccncc1)C1CN(Cc2ccco2)CC12CCOCC2 (stereo not drawn) | – | – | inactive: -18.6% |
| Cc1cccc(NC(=O)Cn2c(-c3cccc(Cl)c3)nc(C)c(CCO)c2=O)c1C | inconclusive: 12.6 µM [inhibitor, single point] | – | – |
| Cc1ccc(-c2cc(N3CCCN(C(=O)c4cccn4C)CC3)n[nH]2)cc1C | inconclusive: 6.31 µM [inhibitor, partial curve, poor fit] | – | – |
| Cc1ccsc1CN1CC(Oc2ccccc2C(=O)NC2CC2)C1 | inconclusive: 1.78 µM [inhibitor, full curve] | – | – |
| COc1ccc(CC(=O)Nc2ccc([C@H]3OCC(=O)N(Cc4cccnc4)[C@@H]3CO)cc2)cc1 | – | inactive | – |
| COc1cccc(CNC(=O)CN2C(=O)N(c3ccc(C)cc3C)S(=O)(=O)c3ccccc32)c1OC | inconclusive: 11.2 µM [inhibitor, single point] | – | – |

| SMILES | Potency | outcome | activity, negative = inhibition |
| --- | --- | --- | --- |
| COc1ccc(-c2cc(N3CCCC(NC(=O)CCc4ccccc4OC)C3)n[nH]2)cc1 (stereo not drawn) | – | – | inactive: -3.32% |
| COc1ccc(C)cc1-n1cnc2cc(C(=O)NC3CCCCCC3)ccc21 | inconclusive: 10 µM [inhibitor, single point] | – | – |
| c1ccc(-c2nc3ncccc3[nH]2)cc1 | inconclusive: 12.6 µM [inhibitor, partial curve, poor fit] | – | – |
| O=C(Nc1ccc(O)c(-c2nc3ccccc3o2)c1)c1ccc(Br)cc1 | active: 2.82 µM | – | – |
| Cc1noc2nc3c(c(C(=O)N[C@H]4CC[C@H]4NC4CCCC4)c12)CCC3 | inconclusive: 14.1 µM [inhibitor, partial curve, poor fit] | – | – |
| O=S(=O)(c1ccc(Cl)cc1)c1nnn2c1nc(NC1CCCCC1)c1sccc12 | inconclusive: 17.8 µM [inhibitor, single point] | – | – |
| O=C(CN1CCOC1=O)N1CCC2(CCC(=O)N(CCCn3ccnc3)C2)CC1 | – | – | inactive: -15.3% |
| CCc1nnc([C@@H]2CC(F)(F)CN2C(=O)c2ocnc2C)o1 | – | inactive | – |
| COc1ccc(NC(=O)c2sc3nc4c(cc3c2N)N2CCC4CC2)cc1OC | inconclusive: 12.6 µM [inhibitor, partial curve, poor fit] | – | – |
| O=C1CCCN1C1CCN(S(=O)(=O)c2ccccc2)CC1 | – | – | inactive: 32.1% [at 44.1 µM] |
| COc1ccc(CC(=O)N2CCC(Oc3ccc(C(=O)N(C)C)cn3)CC2)cc1Cl | inconclusive: 12.6 µM [inhibitor, single point] | – | – |
| CSc1cccc(NC(=O)NC[C@H]2C[C@@H]3CCN2C[C@@H]3CN2CCC(Cc3ccccc3)CC2)c1 | inconclusive: 20 µM [inhibitor, single point] | – | – |
| O=C(CN1CCCc2nc(C3CC3)ncc2C1=O)NCCc1c[nH]c2ccccc12 | active: 10 µM | – | – |
| COc1ccc(NC(=O)CSC2=Nc3ccccc3N=C(c3ccc(F)cc3)C2)cc1OC | inconclusive: 8.91 µM [inhibitor, single point] | – | – |
| CCOc1ccccc1C(=O)N1CCCN(c2cc(-c3ccc(F)cc3)[nH]n2)CC1 | – | inactive | – |
| Cc1ccc(OCc2nc(C3CCCCN3C(=O)CCc3ccccc3)no2)cc1 (stereo not drawn) | inconclusive: 10 µM [inhibitor, single point] | – | – |
| CC(C)CCNC1(Cc2cc(-c3ccc(F)cc3)on2)COC1 | – | – | inactive: -13.4% [at 44.1 µM] |
| CCc1ccc(NC(=O)N(Cc2c[nH]c3ccccc23)C2CCCCC2)cc1 | inconclusive: 1.12 µM [inhibitor, partial curve] | – | – |
| COCCN1CC2(CCC1=O)CCN(c1nc(C(C)C)ccc1C#N)CC2 | inconclusive: 10 µM [inhibitor, partial curve] | – | – |
| Cc1ccc(-n2c(=O)c3c(cnn3C)n(Cc3ccc(Cl)cc3)c2=O)cc1 | inconclusive: 12.6 µM [inhibitor, single point] | – | – |
| COc1ccc(OC)c(CNC(=O)CC2CCOCC2)c1 | – | – | inactive: 7.32% |
| COC(=O)[C@@H]1Cc2c([nH]c3ccccc23)[C@H]2C[C@@H](NCCN3CCOCC3)C[C@@H](c3ccc(OC(F)(F)F)cc3)N21 | inconclusive: 17.8 µM [inhibitor, single point] | – | – |
